Measured values as given in PubChem BioAssay AID686979 (National Center for Advancing Translational Sciences (NCATS), 2013).
Several values for one entry are separate records, joined by “and”; a condition that tells them apart may be missing. Identical values can stand only once. Out of some 420,000 compounds screened, about 50,000 (12%) were called active. Inconclusive means that the source gave no clear call. Such entries were picked first, then a sample of the others. Calls follow the shape of the dose curve; as a rule, active = well fitted inhibition curve with a large enough effect; inconclusive = small, poorly fitted or top-dose-only effect; inactive = flat fitted curve, though single readings scatter. A potency beside an inconclusive call is a rough fit, not a confirmed value.
% is scaled to controls: 0 for no effect and ±100 for the full control effect; potency is read from the fitted curve at half-maximal effect; tags tell the direction and shape of the fitted curve.

Experiment: qHTS for Inhibitors of human tyrosyl-DNA phosphodiesterase 1 (TDP1): qHTS in cells in presence of CPT; also: nearly all actives have a fitted effect of over 55% in size
Conditions: chicken DT40 Tdp1-/-;hTDP1 cells + 20 nM CPT, ATP luminescence, 48 h; activity change, negative = growth inhibition: at 46.2 µM (top of the series) unless noted
Procedure, shortened: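 Chicken DT40 Tdp1-/- cells complemented with human TDP1, 400 cells/well, exposed to compounds plus 20 nM camptothecin for at least 48 h at 37 C; viability read as ATP content by CellTiter-Glo luminescence.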
In the case of `O=C(c1ccc(F)cc1)N1CCC(C(=O)N2CCN(Cc3ccc4c(c3)OCO4)CC2)CC1`, the Potency is reported as “inactive”. With `Cc1cnc2c(c1SCC(=O)NCc1ccc(F)cc1)c(=O)n(C)c(=O)n2C` the Potency was “inactive”. For `CC1=NS(=O)(=O)NC(C)(C)C1`, the Potency was “inactive”. For `CC(C)c1ccc(N=C2N=C(N)c3ccccc32)cc1`, the Potency was inconclusive: 18.4 µM [inhibitor, single point]. With `O=C(NCc1cccnc1)c1ccc(Cn2cc(C(F)(F)F)ccc2=O)cc1` the Potency was “inactive”. For `CC(=O)Nc1ccc(-c2ccnc3c2CC(C(=O)Nc2cccc(OC(F)(F)F)c2)O3)cc1` (stereo not drawn), the Potency was active: 20.6 µM. For `O=C(COC(=O)COc1ccccc1)Nc1ncc(Cl)cc1Cl`, the Potency was “inactive”. With `COc1cc(-c2nnn(CC(=O)NCc3ccccc3)n2)cc(OC)c1OC` the Potency was inconclusive: 16.4 µM [inhibitor, single point] and inconclusive: 29.1 µM [inhibitor, single point]. In the case of `COc1ccc(NC(=O)CSc2nnc3c(C)cc4ccccc4n23)cc1`, the Potency is reported as “inactive”. In the case of `CN(NS(=O)(=O)c1ccc(Cl)cc1)c1ncc(C(F)(F)F)cc1Cl`, the Potency is reported as inconclusive: 16.4 µM [inhibitor, single point]. In the case of `CCn1c(=S)sc2c(=O)n(-c3ccccc3)c(SCC(=O)NCc3ccco3)nc21`, the Potency is reported as active: 17.8 µM. In the case of `CCCCC(=O)N(C)c1c(C)nc2ccc(C(=O)N3CCCCC3)cn12`, the Potency is reported as “inactive”. With `CCOC(=O)CN1CC23C=CC(O2)C(C(=O)NCc2ccccc2OC)C3C1=O` (stereo not drawn) the Potency was “inactive”. In the case of `CC(C)(C)c1ccc(C(=O)Nc2ccc(O)c3c(=O)cc(-c4ccccc4Cl)oc23)cc1`, the Potency is reported as inconclusive: 29.1 µM [inhibitor, single point]. For `O=C(COc1ccccc1)N(Cc1ccccc1)c1nc(-c2ccccc2)cs1`, the Potency was “inactive”. In the case of `O=C(Cc1ccccc1)NCc1n[nH]c(=S)n1-c1ccc(Br)cc1`, the Potency is reported as inconclusive: 18.4 µM [inhibitor, partial curve]. For `COc1ccccc1N(CC(=O)NCc1ccc2c(c1)OCO2)C(=O)CCC(=O)Nc1nccs1`, the Potency was “inactive”. With `Cc1cccc(N2CCN(c3ncnc4c3c(-c3ccccc3)cn4-c3ccccc3)CC2C)c1` (stereo not drawn) the Potency was inconclusive: 8.2 µM [inhibitor, partial curve, poor fit]. With `CC(=O)n1c2c(c3ccccc31)OC(N)=C(C#N)C2c1cccc(Cl)c1Cl` (stereo not drawn) the Potency was active: 14.6 µM. For `COc1ccc(Cl)cc1S(=O)(=O)N1CCCC(C(=O)N2CCOCC2)C1` (stereo not drawn), the Potency was “inactive”. In the case of `CCCCn1c(=O)[nH]c(=O)c2c1nc(-c1ccc3ccccc3c1)n2CC`, the Potency is reported as inconclusive: 29.1 µM [inhibitor, single point]. In the case of `COc1ccc(CCNC(=S)Nc2ccc(OC)cc2)cc1`, the Potency is reported as inconclusive: 23.1 µM [inhibitor, single point]. For `CCn1cc(CN2CCCC(CNS(=O)(=O)c3ccc(OC)cc3)C2)cn1` (stereo not drawn), the Potency was “inactive”. For `C[C@H]1CN([C@@H](C)CO)C(=O)CCCn2cc(nn2)CO[C@@H]1CN(C)C(=O)c1cc(-c2ccccc2)on1`, the Potency was inconclusive: 0.517 µM [inhibitor, full curve, poor fit]. For `CCCCn1nc(NC(=O)c2cccc(Cl)c2)c2cc3ccc(C)cc3nc21`, the Potency was inconclusive: 20.6 µM [inhibitor, partial curve]. With `C[C@H](CO)N1C[C@H](C)[C@@H](CN(C)C(=O)Nc2ccc(C(F)(F)F)cc2)Oc2c(NC(=O)Nc3ccccc3)cccc2C1=O` the Potency was inconclusive: 29.1 µM [inhibitor, single point]. With `COC(=O)C=C1CCC2C3CCC4=CC(=O)CCC4(C)C3C(=O)CC12C` (stereo not drawn) the Potency was “inactive”. For `COc1cc(/C=N/NC(=S)NC2CC3C=CC2C3)cc(OC)c1OC` (stereo not drawn), the Potency was inconclusive: 29.1 µM [inhibitor, single point]. In the case of `COc1cc(CCC(=O)OCC(=O)NCCc2ccc(S(N)(=O)=O)cc2)cc(OC)c1OC`, the Potency is reported as “inactive”. In the case of `Cc1cc(SCC(=O)N/N=C/c2ccc(O)cc2O)c(C)cc1Br`, the Potency is reported as inconclusive: 29.1 µM [inhibitor, single point]. In the case of `CCCCN1C(=O)C(CC(=O)NC(c2ccccc2)c2ccccc2)CC(C(=O)N(C(C)C)C(C)C)=C1C` (stereo not drawn), the Potency is reported as active: 23.1 µM. With `COc1cccc(CNC(=O)CCCn2c(=O)c3cccn3c3cccnc32)c1OC` the Potency was inconclusive: 4.61 µM [inhibitor, full curve, poor fit]. For `COc1ccccc1CCn1c(N)cc(=O)[nH]c1=O`, the Potency was “inactive”. With `CC(C)(C)c1ccc(OCC(=O)NC(Cc2c[nH]c3ccccc23)C(=O)O)cc1` (stereo not drawn) the Potency was “inactive”. For `COc1ccc(CNC(=O)CSc2nnc3c(n2)[nH]c2ccc(OC)cc23)cc1`, the Potency was “inactive”. For `O=S(=O)(Nc1ccc(N2CCCCC2)cc1)c1ccccc1`, the Potency was inconclusive: 20.6 µM [inhibitor, single point]. With `COc1ccc(-c2nc(C(F)(F)F)c(OC)o2)cc1OC` the Potency was inconclusive: 13 µM [inhibitor, partial curve]. With `COc1ccc(C2N(S(=O)(=O)c3ccc(C)cc3)CCN2S(=O)(=O)c2ccc(C)cc2)cc1` the Potency was inconclusive: 14.6 µM [inhibitor, partial curve]. With `COc1ccc(NC(=O)CSC2=C(C#N)C(c3ccco3)C(C(=O)Nc3nc4ccccc4s3)=C(C)N2)cc1` (stereo not drawn) the Potency was inconclusive: 16.4 µM [inhibitor, single point]. In the case of `CCOC(=O)N1CCN(C(=O)CCCCCn2c(=S)[nH]c3cc4c(cc3c2=O)OCO4)CC1`, the Potency is reported as inconclusive: 29.1 µM [inhibitor, single point]. For `O=C(Nc1ccc(F)cc1F)c1cc2ccccc2oc1=O`, the Potency was “inactive”. In the case of `CCCCc1cn([C@@H](CCCCNC(=O)OC(C)(C)C)C(=O)N2CCN(C(=O)OC(C)(C)C)CC2)nn1`, the Potency is reported as inconclusive: 29.1 µM [inhibitor, single point]. With `S=C(N/N=C1\CCc2ccccc21)NC1CCCCC1` the Potency was inconclusive: 29.1 µM [inhibitor, single point]. In the case of `CN[C@H]1CC[C@@H](c2ccc(Cl)c(Cl)c2)c2ccccc21`, the Potency is reported as active: 15 µM. With `CC(NCCCOc1cccc2ccccc12)c1ccccc1` (stereo not drawn) the Potency was inconclusive: 29.1 µM [inhibitor, single point]. In the case of `O=C(CCN1C(=O)c2ccccc2C1=O)Nc1ccc(S(=O)(=O)N2CCOCC2)cc1`, the Potency is reported as inconclusive: 29.1 µM [inhibitor, single point]. With `O=C(COc1cccc2ccccc12)NNC(=O)Nc1ccccc1` the Potency was inconclusive: 29.1 µM [inhibitor, single point]. In the case of `CC(=O)N1CCN(S(=O)(=O)c2cccc(C(=O)OCc3cccc(F)c3)c2)CC1`, the Potency is reported as inconclusive: 9.2 µM [inhibitor, partial curve]. With `O=C(C(c1ccccc1)c1ccccc1)N1CCN(Cc2ccccn2)CC1` the Potency was inconclusive: 29.1 µM [inhibitor, single point]. With `CC(=O)c1ccc(-c2ccc(C(=O)N(C)Cc3nc4ccccc4c(=O)[nH]3)o2)cc1` the Potency was inconclusive: 20.6 µM [inhibitor, single point]. In the case of `CC(C)(C)n1nnnc1C(c1ccc(Cl)cc1)N1CCCc2ccccc21` (stereo not drawn), the Potency is reported as inconclusive: 25.9 µM [inhibitor, single point]. With `COc1cc(C(=O)NCCS(=O)(=O)N2CCN(c3ccccc3)CC2)cc(OC)c1OC` the Potency was active: 20.6 µM. In the case of `COc1ccc(-c2ccc(SCC(=O)c3ccc(F)cc3)nn2)cc1OC`, the Potency is reported as inconclusive: 25.9 µM [inhibitor, single point]. For `CCCOc1ccc(C(=O)Nc2ccc3c(c2)OCCO3)cc1`, the Potency was “inactive”. With `Cc1ccc(NC(=O)c2ccc(COc3ccc4c(c3)CCC4)cc2)c(C)c1` the Potency was inconclusive: 29.1 µM [inhibitor, single point]. With `COc1cccc(-c2cc(C(F)(F)F)nc(-n3cc(Cl)cn3)n2)c1` the Potency was inconclusive: 23.1 µM [inhibitor, single point]. For `Cc1ccc(NS(=O)(=O)c2ccc3c(c2)CCN3C(=O)CCC(=O)O)cc1Cl`, the Potency was “inactive”. With `COc1ccc(NC(=O)C(C)N2C(=O)c3ccccc3S2(=O)=O)c(OC)c1` (stereo not drawn) the Potency was “inactive”. With `CCOC(=O)[C@]12CCCC=C1N(Cc1ccc3c(c1)OCO3)C(=O)[C@H](CC(=O)NCc1ccc(C)o1)C2` the Potency was inconclusive: 29.1 µM [inhibitor, single point]. With `COc1cc(C(=O)O/N=C2\C=CC(=O)C(C)=C2)cc(OC)c1OC` the Potency was active: 6.51 µM. For `CCOC(=O)C1=C(NC(=O)c2ccc(Br)o2)Nc2ccccc2N=C1`, the Potency was inconclusive: 16.4 µM [inhibitor, single point]. With `Cc1ccc2nc(N(CCCN(C)C)C(=O)CCc3ccccc3)sc2c1` the Potency was inconclusive: 9.2 µM [inhibitor, partial curve]. With `CCOC(=O)C1(Cc2ccccc2C)CCCN(C(=O)c2ccc(C(C)=O)s2)C1` (stereo not drawn) the Potency was inconclusive: 32.6 µM [inhibitor, single point]. With `Cc1ccc(Nc2c(-c3ccccc3O)nc3cc(C)ccn23)cc1` the Potency was inconclusive: 18.4 µM [inhibitor, single point]. With `CCCOc1cccc(-c2nc3ccccc3c(=O)o2)c1` the Potency was inconclusive: 25.9 µM [inhibitor, single point]. In the case of `O=C(N/N=C/c1cccs1)c1cccc(S(=O)(=O)Nc2ccc(Cl)cc2)c1`, the Potency is reported as inconclusive: 8.2 µM [inhibitor, partial curve, poor fit]. In the case of `COc1ccc(Oc2nc(-c3cccnc3)nc3ccccc23)cc1`, the activity change, negative = growth inhibition is reported as inconclusive: -32.5% [inhibitor]. With `COc1ccccc1/C=C/c1nc(C#N)c(N2CCN(c3ccccc3)CC2)o1` the Potency was inconclusive: 20.6 µM [inhibitor, single point].
